# Measurements: the antibiotic and cytotoxicity screens of Wong et al. (2023)
# The list shows a part of the results.
# Key:
# HSkMC = human skeletal muscle cells; test: cytotoxicity call (relative viability < 0.9); details: 10 µM
# HepG2 = test: cytotoxicity call (relative viability < 0.9); details: 10 µM
# S. aureus RN4220 = test: growth inhibition call (relative growth <= 0.2); details: 50 µM
Compound,cytotoxicity call (HSkMC),cytotoxicity call (HepG2),growth inhibition call (S. aureus RN4220)
O=C(CCc1ccc(O)cc1)c1c(O)cc(O)cc1OC1OC(CO)C(O)C(O)C1O (stereo not given),inactive,inactive,inactive
COc1ccc(S(=O)(=O)N(C)C[C@H]2OCCCC[C@H](C)Oc3ccc(NC(=O)Nc4ccccc4)cc3C(=O)N([C@H](C)CO)C[C@@H]2C)cc1,inactive,inactive,inactive
Cc1noc(C)c1NC(=O)N(C)C[C@H]1OCCCC[C@@H](C)Oc2ccc(NC(=O)Nc3ccc4c(c3)OCO4)cc2C(=O)N([C@@H](C)CO)C[C@H]1C,inactive,inactive,inactive
C[C@H](CO)N1C[C@H](C)[C@H](CN(C)Cc2ccc(-c3ccccc3)cc2)Oc2c(NC(=O)Nc3ccc(F)cc3)cccc2C1=O,inactive,inactive,inactive
O=C(C[C@@H]1C[C@@H]2c3cc(NC(=O)Nc4ccc(C(F)(F)F)cc4)ccc3O[C@@H]2[C@H](CO)O1)NCCc1ccccc1,inactive,inactive,inactive
COc1cccc(S(=O)(=O)Nc2ccc3c(c2)[C@H]2C[C@@H](CC(=O)NCc4ccccc4F)O[C@@H](CO)[C@H]2O3)c1,inactive,inactive,inactive
Cc1noc(C)c1NC(=O)N(C)C[C@@H]1Oc2ccc(NC(=O)NC(C)C)cc2C(=O)N([C@H](C)CO)C[C@H]1C,inactive,inactive,inactive
Cc1ccc(S[C@]2(C(=O)NCC(F)(F)F)CC(=O)N(Cc3ccccc3C(F)(F)F)[C@@H]2c2ccc(CO)cc2I)cc1,inactive,inactive,inactive
Cc1ccc(S(=O)(=O)Nc2ccc3c(c2)C(=O)N([C@H](C)CO)C[C@H](C)[C@@H](CN(C)C(=O)Nc2ccc(F)cc2)OCCCC[C@@H](C)O3)cc1,inactive,inactive,inactive
C=CC[C@H](CC(=O)NCCO)C(=O)N[C@H](COC(=O)[C@H](CC=C)CC(=O)OC(C)(C)C)Cc1c[nH]c2ccccc12,inactive,inactive,inactive
C[C@H]1CCCCO[C@H](CN(C)S(=O)(=O)c2ccc(Cl)cc2)[C@@H](C)CN([C@@H](C)CO)C(=O)c2cc(NS(=O)(=O)c3cccs3)ccc2O1,inactive,inactive,inactive
C[C@H]1CN([C@@H](C)CO)C(=O)Cc2cc(NS(=O)(=O)c3cccs3)ccc2O[C@@H]1CN(C)Cc1ccc(-c2ccccc2)cc1,inactive,inactive,inactive
COc1ccccc1S(=O)(=O)N[C@@H]1C=C[C@@H](CC(=O)N2CCOCC2)O[C@@H]1CO,inactive,inactive,inactive
c1ccc(-c2nn(-c3ccccc3)c3c2cnc2ccccc23)cc1,inactive,active,inactive
CC(=O)O[C@H]1C[C@@]2(C)[C@@H](C[C@@H](O)[C@H]3[C@@]4(C)CC[C@@H](O)[C@@H](C)[C@@H]4CC[C@@]32C)/C1=C(\CCC=C(C)C)C(=O)O,inactive,inactive,active
C[C@@H]1CCCCO[C@H](CN(C)C(=O)c2ccccc2)[C@H](C)CN([C@@H](C)CO)C(=O)c2cc(NS(=O)(=O)c3cccs3)ccc2O1,inactive,inactive,inactive
C[C@@H]1CCCCO[C@H](CN(C)C(=O)Nc2ccccc2)[C@H](C)CN([C@H](C)CO)C(=O)c2cc(NS(=O)(=O)c3ccc(Cl)cc3)ccc2O1,inactive,inactive,inactive
Cc1cccc(NC(=O)Nc2ccc3c(c2)C(=O)N(C)[C@@H]2CC[C@@H](CC(=O)NCc4ccccc4Cl)O[C@@H]2CO3)c1,inactive,inactive,inactive
C[C@@H]1CN([C@@H](C)CO)C(=O)Cc2cc(NS(=O)(=O)c3ccc(F)cc3)ccc2O[C@H]1CN(C)S(=O)(=O)c1ccc(F)cc1,inactive,inactive,inactive
C[C@H](CO)N1C[C@H](C)[C@@H](CN(C)S(=O)(=O)c2cn(C)cn2)OCCCC[C@H](C)Oc2ccc(NS(=O)(=O)c3cn(C)cn3)cc2C1=O,inactive,inactive,inactive
NC(=CS(=O)(=O)Cc1ccc(F)cc1)NO,inactive,active,inactive
C[C@@H]1CN([C@@H](C)CO)C(=O)c2cc(NC(=O)Nc3ccc4c(c3)OCO4)ccc2O[C@@H](C)CCCCO[C@H]1CN(C)CC1CCCCC1,inactive,active,inactive
Cc1noc(C)c1NC(=O)N(C)C[C@H]1OCCCC[C@H](C)Oc2ccc(NC(=O)NC3CCCCC3)cc2C(=O)N([C@@H](C)CO)C[C@@H]1C,inactive,inactive,inactive
C[C@H](CO)N1C[C@H](C)[C@H](CN(C)C(=O)Nc2cccc3ccccc23)Oc2ncc(-c3cccc(F)c3)cc2C1=O,inactive,inactive,inactive
C=CCN(Cc1ccccc1)C(=O)[C@@H]1N(CCOCCO)C(=O)[C@@H]2[C@H](C(=O)O)[C@@H]3C=C[C@@]21O3,inactive,inactive,inactive
